# Measurements published in the supplement of paper PMC4604168 (melanoma cell lines).
# This is one part of the list. Repeats are few or missing, and single values can be far off.
# Experiments:
# Experiment in all cases: cell count relative to DMSO control; melanoma cells; higher = more viable cells
# Settings in all cases: library dose: low library concentration; 72 h
# WM115 = system: WM115
# WM1716 = system: WM1716
# WM1745 = system: WM1745
# WM3526 = system: WM3526
# WM3619 = system: WM3619
# WM451Lu = system: WM451Lu
# 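Also: cell number obtained by counting DAPI-stained nuclei in high-throughput microscope images with image analysis software, screen run in 1,536-well plates.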
Structure (SMILES),cell count (WM115) [%],cell count (WM1716) [%],cell count (WM1745) [%],cell count (WM3526) [%],cell count (WM3619) [%],cell count (WM451Lu) [%]
"O=C(O)[C@@H]1[O][Sb](=[O])([O][Sb]2(=[O])[O][C@H]([C@H](O)CO)[C@H](O)[C@H](C(=O)O)[O]2)[O][C@H]([C@H](O)CO)[C@@H]1O (some centres undefined) [stibogluconate] + NCC(=O)Nc1ccc(-n2nc(C(F)(F)F)cc2-c2ccc3c(ccc4ccccc43)c2)cc1 [OSU03012] (first compound 2 µM, partner dose 1 µM)",88.6,90.5,99.5,67.9,100,79.8
"Cn1nnc2c(C(N)=O)ncn2c1=O [temozolomide] + CCCCCCCCCCCC1=C(O)C(=O)C=C(O)C1=O [Embelin] (first compound 2 µM, partner dose 1.2 µM)",99,92.6,81.8,94.7,97.4,113
"Cc1cc(N2CCOCC2)cc2[nH]c(-c3c(NC[C@@H](O)c4cccc(Cl)c4)cc[nH]c3=O)nc12 + O=C1NC(=O)/C(=C/c2ccc(-c3ccc(F)cc3O)o2)S1 [AS252424] (first compound 0.2 µM, partner dose 1 µM)",110,132,73.9,66.2,101,82.1
"O=C(O)c1ccc2c(c1)nc(Nc1cccc(Cl)c1)c1ccncc12 + Clc1ccc(Nc2nnc(Cc3ccncc3)c3ccccc23)cc1 [vatalanib] (first compound 0.4 µM, partner dose 2 µM)",103,80.9,93,81.5,81.3,91.3
"O=C(O)[C@@H]1[O][Sb](=[O])([O][Sb]2(=[O])[O][C@H]([C@H](O)CO)[C@H](O)[C@H](C(=O)O)[O]2)[O][C@H]([C@H](O)CO)[C@@H]1O (some centres undefined) [stibogluconate] + O=C(O)c1ccc(-c2c[nH]c3ncc(-c4ccccc4)cc23)cc1C1CCCC1 [GSK650394] (first compound 2 µM, partner dose 0.16 µM)",98.4,95,133,97,118,101
"O=C(Nc1cc(C(F)(F)F)cc(C(F)(F)F)c1)c1cc(Cl)ccc1O + c1cc(-c2cnn3cc(-c4ccc(OCCN5CCCCC5)cc4)cnc23)ccn1 [Dorsomorphin] (first compound 0.016 µM, partner dose 0.4 µM)",96,100,77.3,84.4,110,111
"O=C(O)[C@@H]1[O][Sb](=[O])([O][Sb]2(=[O])[O][C@H]([C@H](O)CO)[C@H](O)[C@H](C(=O)O)[O]2)[O][C@H]([C@H](O)CO)[C@@H]1O (some centres undefined) [stibogluconate] + COc1cc2c(Oc3ccc4[nH]c(C)cc4c3F)ncnc2cc1OCCCN1CCCC1 [cediranib] (first compound 2 µM, partner dose 0.4 µM)",103,95.4,89.8,102,123,111
"Cc1cc(N2CCOCC2)cc2[nH]c(-c3c(NC[C@@H](O)c4cccc(Cl)c4)cc[nH]c3=O)nc12 + Cn1cc(/C=C2\C(=O)Nc3cccnc32)c2ccccc21 [GW441756] (first compound 0.2 µM, partner dose 0.4 µM)",100,118,76.6,108,115,116
"Cn1nnc2c(C(N)=O)ncn2c1=O [temozolomide] + O=C(Nc1cccc(Cl)c1)Nc1ncc(CCNc2ncnc3ccsc23)s1 [SNS314] (first compound 2 µM, partner dose 0.0008 µM)",85.2,88.5,103,105,80.6,135
"O=C(Nc1cc(C(F)(F)F)cc(C(F)(F)F)c1)c1cc(Cl)ccc1O + OCCn1cc(-c2cnc3nnn(Cc4ccc5ncccc5c4)c3n2)cn1 [PF04217903] (first compound 0.016 µM, partner dose 1 µM)",106,107,126,98.8,97.3,123
"Cc1cc(N2CCOCC2)cc2[nH]c(-c3c(NC[C@@H](O)c4cccc(Cl)c4)cc[nH]c3=O)nc12 + O=c1cc(-c2cccc3c2Sc2ccccc2S3)oc(N2CCOCC2)c1 [KU55933] (first compound 0.2 µM, partner dose 1 µM)",110,89.1,88.5,79.7,80.6,109
"O=C(O)[C@@H]1[O][Sb](=[O])([O][Sb]2(=[O])[O][C@H]([C@H](O)CO)[C@H](O)[C@H](C(=O)O)[O]2)[O][C@H]([C@H](O)CO)[C@@H]1O (some centres undefined) [stibogluconate] + O=C1NC(=O)/C(=C/c2ccc(-c3ccc(F)cc3O)o2)S1 [AS252424] (first compound 2 µM, partner dose 1 µM)",101,96.3,86.4,94,94.9,144
"O=C(Nc1cc(C(F)(F)F)cc(C(F)(F)F)c1)c1cc(Cl)ccc1O + CCCCCCCCc1ccc(CCC(N)(CO)CO)cc1 [fingolimod] (first compound 0.016 µM, partner dose 2 µM)",107,99,119,100,100,125
"O=C(O)[C@@H]1[O][Sb](=[O])([O][Sb]2(=[O])[O][C@H]([C@H](O)CO)[C@H](O)[C@H](C(=O)O)[O]2)[O][C@H]([C@H](O)CO)[C@@H]1O (some centres undefined) [stibogluconate] + NC(=O)Nc1cc(-c2cccc(F)c2)sc1C(=O)N[C@H]1CCCNC1 [AZD7762] (first compound 2 µM, partner dose 0.02 µM)",96.6,74,100,104,79.8,85
"O=C(Nc1cc(C(F)(F)F)cc(C(F)(F)F)c1)c1cc(Cl)ccc1O + O=C(O)C(=O)Nc1sc2c(c1C(=O)O)CCNC2 [TCS401] (first compound 0.016 µM, partner dose 1.66667 µM)",103,117,91.4,103,131,92.9
"Cn1nnc2c(C(N)=O)ncn2c1=O [temozolomide] + COc1cc2c(Oc3ccc4[nH]c(C)cc4c3F)ncnc2cc1OCCCN1CCCC1 [cediranib] (first compound 2 µM, partner dose 0.4 µM)",81.8,73.9,90.8,89.8,99.8,96.1
"O=C(O)c1ccc2c(c1)nc(Nc1cccc(Cl)c1)c1ccncc12 + CCCS(=O)(=O)Nc1ccc(F)c(C(=O)c2c[nH]c3ncc(Cl)cc23)c1F [PLX4720] (first compound 0.4 µM, partner dose 0.08 µM)",92.8,85.1,90.7,78.6,87.2,120
"O=C(Nc1ccccc1)c1cc([N+](=O)[O-])ccc1Cl + O=S(=O)(c1ccccc1)N(CC(F)(F)F)c1ccc(C(O)(C(F)(F)F)C(F)(F)F)cc1 [T0901317] (first compound 2 µM, partner dose 1.4 µM)",86.4,85.3,79,95.7,76.7,97.6
"O=C(O)[C@@H]1[O][Sb](=[O])([O][Sb]2(=[O])[O][C@H]([C@H](O)CO)[C@H](O)[C@H](C(=O)O)[O]2)[O][C@H]([C@H](O)CO)[C@@H]1O (some centres undefined) [stibogluconate] + CC(=O)c1c(C)c2cnc(Nc3ccc(N4CCNCC4)cn3)nc2n(C2CCCC2)c1=O [palbociclib] (first compound 2 µM, partner dose 0.04 µM)",81.5,69.8,60.2,59.8,72.8,78.6
"O=C(O)[C@@H]1[O][Sb](=[O])([O][Sb]2(=[O])[O][C@H]([C@H](O)CO)[C@H](O)[C@H](C(=O)O)[O]2)[O][C@H]([C@H](O)CO)[C@@H]1O (some centres undefined) [stibogluconate] + Nc1ccn([C@@H]2O[C@H](CO)[C@@H](O)C2(F)F)c(=O)n1 [gemcitabine] (first compound 2 µM, partner dose 0.0004 µM)",96.1,92.8,68.1,88.3,60.8,86.1
"Cn1nnc2c(C(N)=O)ncn2c1=O [temozolomide] + N#Cc1c(O)c2c(-c3ccc(-c4ccccc4O)cc3)csc2[nH]c1=O [A769662] (first compound 2 µM, partner dose 2 µM)",110,96.3,106,112,73.6,109
"O=C(Nc1ccccc1)c1cc([N+](=O)[O-])ccc1Cl + COC(=O)c1sccc1S(=O)(=O)Nc1ccc(Nc2ccccc2)cc1OC [GSK0660] (first compound 2 µM, partner dose 1 µM)",93.4,101,87,89.5,90.8,110
"O=C(Nc1cc(C(F)(F)F)cc(C(F)(F)F)c1)c1cc(Cl)ccc1O + NC1(c2ccc(-c3nc4ccn5c(=O)[nH]nc5c4cc3-c3ccccc3)cc2)CCC1 [MK2206] (first compound 0.016 µM, partner dose 0.4 µM)",81.8,96.2,91,69.5,104,125
"O=C(Nc1cc(C(F)(F)F)cc(C(F)(F)F)c1)c1cc(Cl)ccc1O + Cc1ccc(Nc2nccc(N(C)c3ccc4c(C)n(C)nc4c3)n2)cc1S(N)(=O)=O [Pazopanib] (first compound 0.016 µM, partner dose 0.4 µM)",104,85.1,95.9,109,109,117
